Measured values published in PubChem BioAssay AID1347073 (National Center for Advancing Translational Sciences (NCATS), 2019).
The campaign covered roughly 45,000 compounds. About 200 (0.44%) were called active. About 7% were inconclusive and are not listed. The call rests on the fitted dose curve; in most records, active means well fitted activation curve with a large enough effect; inconclusive means small, poorly fitted or top-dose-only effect; inactive means no such curve, though single readings can be large or run the other way. This is one part of the list.

experiment: qHTS of TDP-43 Inhibitors: NCGC Sytravon Library Screen; settings: yeast TDP-43 toxicity rescue, BacTiter-Glo growth, 24 h; series mostly up to 46.1 µM; growth rescue (activation): at the top concentration; further: 0% is about no effect; nearly all actives have a fitted effect of over 55% in size
Summary of the method: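 TDP-43-expressing yeast, pregrown in raffinose, seeded at OD600 0.02 in galactose medium with compound for 24 hr at 30 deg C. Growth read by BacTiter-Glo luminescence, so rescue of toxicity appears as activation.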

Compound | growth rescue (activation)
CCOC(=O)c1c(NC(=O)/C=C/c2ccc(OC)cc2)sc2c1CCC(C)C2 (stereo unspecified) | inactive: 1.47%
Cc1ccc(-c2csc(NC(=O)C[n+]3cc(-c4ccccc4)n4c3CCC4)n2)cc1 | inactive: -28.3%
COc1ccccc1NS(=O)(=O)c1cc(N)ccc1N1CCCC1 | inactive: 4.93%
Cc1cccc2[nH]c(CN(C)Cc3nc(CC4CC4)no3)nc12 | inactive: 4.14%
FC(F)(F)c1cnc(C(c2ccccc2)c2ncn[nH]2)c(Cl)c1 (stereo unspecified) | inactive: 0.853%
COc1ccc(Cl)cc1C(=O)Nc1ccc(NC(C)=O)cc1 | inactive: 13.6%
COCC(=O)Nc1cc([N+](=O)[O-])ccc1OC | inactive: -0.0743%
COc1ccc(NC(=O)CSc2nnnn2Cc2ccccc2)cc1 | inactive: 11.6%
NS(=O)(=O)c1ccc(NC(=S)N2CCN(Cc3ccc(Cl)c(Cl)c3)CC2)cc1 | inactive: -6.69%
N#CCC(=O)Nc1ccc(C(=O)OCC(=O)Nc2ccccc2Sc2ccccc2)cc1 | inactive: 17.1%
COc1ccc(-c2nn(-c3ccccc3)cc2/C=C\C(=O)N2CCOCC2)cc1[N+](=O)[O-] | inactive: 12.8%
COc1ccc(CCCc2nnc(SCC(=O)NN)o2)c(C)c1 | inactive: 9.27%
CCCn1c(=N)n(CC(=O)c2ccc(Cl)c(Cl)c2)c2ccccc21 | inactive: 26.5%
COc1ccc(-c2[nH]ncc2C(=O)NCc2ccccc2OC)cc1 | inactive: 6.42%
NC(=O)NC(c1ccc(Cl)cc1)c1ccccc1Cl (stereo unspecified) | inactive: 7.2%
Cc1nc2ccc(NC(=S)N3CCN(c4ccccn4)CC3)cc2nc1C | inactive: 2.19%
CC(=O)Nc1ccc(S(=O)(=O)Nc2ccc3c(c2)n(C)c(=O)n3C)c(C)c1 | inactive: 14.8%
COc1cccc(-c2cnc(C(O)c3ccc(SC)cc3)[nH]2)c1 (stereo unspecified) | inactive: 3.36%
O=C(COc1ccc(/C=N/NC(=O)CSCc2ccc([N+](=O)[O-])cc2)cc1)NCc1ccco1 | inactive: -26.2%
COc1ccc(-n2nc(C(=O)NCc3cc(OC)ccc3OC)c3c4ccccc4n(C)c3c2=O)cc1 | inactive: 5.82%
Cn1cc(C(=O)c2ccc(Cl)cc2Cl)cc1C(=O)O | inactive: 8.91%
COc1ccc(C2(c3ccc(OC)cc3)NC(=O)N(CC(=O)NC(C)C)C2=O)cc1 | inactive: -2.44%

Compound | growth rescue (activation)
CC(=O)Oc1ccc(C(=O)Nc2cccc(C(=O)c3cccc(NC(=O)c4ccc(OC(C)=O)cc4)c3)c2)cc1 | inactive: 11%
O=C(N/N=C/C1C(c2ccccc2)C1(Cl)Cl)c1cccc(Cl)c1 (stereo unspecified) | inactive: -5.08%
C/C(N)=C(/C#N)C(=O)CSc1nnc(-c2ccc(OC(F)F)cc2)o1 | inactive: -16.7%
Cc1ccc(SCc2cn3cc(Cl)ccc3n2)cc1 | inactive: 9.95%
COc1cccc(C(C(=O)NC(C)(C)C)N(CCC(C)C)C(=O)CCC(=O)Nc2cc(C)on2)c1OC (stereo unspecified) | inactive: -1.87%
Cc1ccc(NC(=O)C2CC(Cl)=CCC2C(=O)O)c([N+](=O)[O-])c1 (stereo unspecified) | inactive: -10.3%
CCCc1nnc(NC(=O)CS(=O)(=O)c2ccccc2)s1 | inactive: 1.67%
COc1ccc(CNC(=O)CN2CCN(C(c3ccccc3)c3ccccc3)CC2)cc1 | inactive: -1.74%
CCN(CC)S(=O)(=O)c1ccc(/C=C/C(=O)O)cc1 | inactive: 4.08%
CCOc1ccc(C2NC(=O)NC(C)=C2[N+](=O)[O-])cc1OC (stereo unspecified) | inactive: 6.95%
CCOC(=O)C1=C(C)NC(=S)NC1C (stereo unspecified) | inactive: 14.2%
O=C(c1cc(=O)c2ccccc2o1)N1CCN(c2ccccc2)CC1 | inactive: 32.5%
Cc1sc(NC(=S)NC(=O)c2ccco2)c(C#N)c1C | inactive: -4.44%
CCOC(=O)c1c(NC(=O)C2CC=CCC2C(=O)O)sc(C)c1CC (stereo unspecified) | inactive: 3.63%
O=C(COc1cccnc1[N+](=O)[O-])Nc1c(Cl)cccc1Cl | inactive: 9.28%
NC(=O)c1cccc(Nc2nc(C(N)Cc3ccc(C(F)(F)F)cc3)cs2)n1 (stereo unspecified) | inactive: 22.4%
CCCc1cc(C(=O)Nc2cc(C)ccc2O)no1 | inactive: 5.25%
CCc1nn(C(C)C(=O)Nc2cccc(C)c2C)c(=O)c2cc3occc3n12 (stereo unspecified) | inactive: 34.7%
COCCCNS(=O)(=O)c1ccc2[nH]c(=O)[nH]c2c1 | inactive: 7.11%
COCCC(=O)N1CCC(Oc2ccc(C(=O)NCc3cccc(C)n3)cc2)CC1 | inactive: -10.4%
COc1ccccc1-c1ccc2c(c1)C(C)(Cc1cccc(C#N)c1)C(=O)N2 (stereo unspecified) | inactive: 11.1%
N#C/C(=C\c1ccc(OC(=O)c2ccc(Br)s2)cc1)c1nc2ccccc2[nH]1 | inactive: -10.3%

Compound | growth rescue (activation)
CCOCCOc1nc(C)cc(C)c1S(=O)(=O)c1ccccc1C | inactive: 12.5%
CN(C1CCS(=O)(=O)C1)S(=O)(=O)c1ccccc1 (stereo unspecified) | inactive: 5.42%
CC(=O)c1ccc(N(C(=O)CS(=O)CC(=O)Nc2ccc(F)cc2)C(C(=O)NC2CCCCC2)c2cccs2)cc1 (stereo unspecified) | inactive: 13.4%
CN(C)c1nc(C#N)nc(N(C)C)n1 | inactive: 6.16%
CCOc1ccc(CNS(=O)(=O)c2c(C)nc3scc(C)n3c2=O)cc1OC | inactive: -11.4%
Cc1cccc(N2CCC(N3CCN(C4CCCCC4)C(CCO)C3)CC2)c1C (stereo unspecified) | inactive: -1.5%
N=c1sccn1CC(=O)NCc1ccc(Cl)cc1Cl | inactive: -4.76%
CC(Cc1cccs1)NC(=S)Nc1ccccc1 (stereo unspecified) | inactive: 19.4%
COc1ccccc1N(Cc1cc(=O)[nH]c2ccccc12)C(=O)c1ccccc1 | inactive: -9.22%
CCOC(=O)CCCNC(=O)CSc1nnc(-c2ccccc2)c(-c2ccccc2)n1 | inactive: 7.92%
OC(COc1ccc(CNCCc2ccccc2F)cc1)CN1CCCCC1 (stereo unspecified) | inactive: -11.4%
Cc1ccc(N(CC(=O)NCc2ccco2)C(=O)CCC(=O)Nc2nccs2)cc1C | inactive: 9.59%
CC(C)NC(=O)C1CCCN(S(=O)(=O)c2cccc3nonc23)C1 (stereo unspecified) | inactive: 5.26%
CCOc1ccc(Oc2c(/C=N/NC(N)=O)c(C)nn2-c2ccccc2)cc1 | inactive: 15.8%
COC(=O)c1ccc(NC(=S)N2CCN(C)CC2)cc1 | inactive: -15.6%
COc1ccc(OCc2nnc(SCC(=O)NCC3CCCO3)n2N)cc1 (stereo unspecified) | inactive: -10.6%
COc1ccccc1CNC(=O)C1(C)CCN1Cc1ccc2ccccc2c1 (stereo unspecified) | inactive: -0.274%
CCCSc1cc(NCCOC(C)=O)c([N+](=O)[O-])c2nonc12 | inactive: 10.9%
CCOC(=O)C1(Cc2ccccc2C)CCCN(C(=O)CCn2nccc2C)C1 (stereo unspecified) | inactive: -7.23%
CN(C)CCCn1c(=O)n(C2CCCCC2)c(=O)c2c3c(sc21)CCCCC3 | inactive: 4.01%
CCCC(C(=O)NC1CCCC1)N(C(=O)Cn1nnc(-c2ccc(C)o2)n1)c1ccccc1F (stereo unspecified) | inactive: -0.756%
CC1(C)Cc2c(C#N)c(NCCN3CCOCC3)nc(-c3ccccc3)c2CO1 | inactive: 15.2%

Compound | growth rescue (activation)
Cc1ccc(C2c3c(oc4ccccc4c3=O)C(=O)N2c2nncs2)cc1 (stereo unspecified) | inactive: 26.9%
COc1ccccc1NC(=O)N[C@@H](Cc1c[nH]c2ccccc12)C(=O)NN | inactive: -8.16%
O=Cc1cc([N+](=O)[O-])ccc1N1CCOCC1 | inactive: 4.79%
COc1ccc(-n2c3c(c(=O)[nH]c2=O)C(NS(=O)(=O)c2ccc(Cl)cc2)(C(F)(F)F)C(=O)N3)cc1 (stereo unspecified) | inactive: 3.54%
CN(C)c1ccc(C2(O)C(=O)c3ccccc3C2=O)cc1 | inactive: -0.719%
COCC(CN1CCN(C2=NS(=O)(=O)c3ccccc32)CC1)OC(=O)c1ccc(OC)cc1 (stereo unspecified) | inactive: 3.47%
Cc1cc(C)n(/N=C/c2cc([N+](=O)[O-])ccc2O)c(=O)c1 | inactive: -47.7%
CCN(CC)c1ccc(/C=N/NC(=O)Cc2cccs2)c(O)c1 | inactive: -20.7%
C=CCN(c1ccc(C(=O)Nc2cc(C)cc(C)c2)cc1)S(C)(=O)=O | inactive: 12.5%
Cc1csc(SCC(=O)NC(C)c2ccccc2)n1 (stereo unspecified) | inactive: 21.8%
CCOC(=O)C(CCCP(=O)(c1ccccc1)c1ccccc1)(NC(C)=O)C(=O)OCC | inactive: -8.66%
O=C(NCCN1CCOCC1)c1ccc(NC(=O)C2COc3ccccc3O2)cc1 (stereo unspecified) | inactive: 14.3%
CCOC(=O)C1=C(C)NC(=S)NC1/C=C/c1ccccc1 (stereo unspecified) | inactive: -2.84%
Cc1cc(C)n(C(C)CNS(=O)(=O)c2ccc(C)c(C)c2)n1 (stereo unspecified) | inactive: -6.97%
O=C(Nc1ccc(N2CCN(C(=O)c3cccs3)CC2)cc1)c1cccnc1 | inactive: -1.98%
CCCCc1cc(=O)oc2c(CN(CC)CC)c(O)c(Cl)cc12 | inactive: 15.9%
N#CCSc1nc2ccccc2c(=O)n1CCCC(=O)NCC1CCCO1 (stereo unspecified) | inactive: 10.5%
COc1ccc(-c2nc(C(=O)O)cs2)cc1OC | inactive: 4.64%
CN(CC(=O)NCc1ccc2c(c1)OCO2)S(=O)(=O)c1ccc(F)cc1 | inactive: -1.34%
O=C(CSc1ncn[nH]1)N1N=C2/C(=C\c3ccco3)CCCC2C1c1ccco1 (stereo unspecified) | inactive: -3.5%
COc1cc(C(=O)NC2CCN(Cc3ccccc3)CC2)cc(Cl)c1OC(C)C | inactive: 4.58%
CCCc1cc(=O)[nH]c(SCC(=O)NC2CCCCCCC2)n1 | inactive: -2.16%

Compound | growth rescue (activation)
COc1cc2c(cc1OC)C(C)N(C(=O)C(NC(=O)c1ccccc1)C(C)C)CC2 (stereo unspecified) | inactive: 16.3%
Cc1ccc(S(=O)(=O)n2c([N+](=O)[O-])cnc2C)c(C)c1C | inactive: 2.88%
CCOc1c(O)ccc(C2NC(=O)NC(C)=C2C(=O)OC)c1[N+](=O)[O-] (stereo unspecified) | inactive: 1.99%
N#Cc1ccc(NC(=O)CCc2nc3ccccc3s2)cc1 | inactive: 23.7%
CCOc1ccccc1NC(=O)NCCC1=CCCCC1 | inactive: -6.38%
CCC(C)N(C(=O)c1csnn1)C(C(=O)NC1CCCC1)c1ccccc1F (stereo unspecified) | inactive: -7.47%
CCOC(=O)C1=C(O)C(=O)N(c2ccc(S(N)(=O)=O)cc2)C1c1ccc(Br)cc1 (stereo unspecified) | inactive: 0.636%
COC(C(=O)Nc1ccnn1C1CCN(Cc2nccs2)CC1)c1ccccc1 (stereo unspecified) | inactive: -2.03%
CC(=O)N/N=C\c1ccccc1OC/C=C/c1ccccc1 | inactive: -15.8%
COc1c(Br)cc(Br)cc1/C=C1/C(=O)N=C(N)N1C | inactive: 2.96%
CS(=O)(=O)N1CCN(c2ccc(NC(=O)c3ccc([N+](=O)[O-])o3)cc2)CC1 | inactive: -2.08%
O=C(/C=C/c1cccs1)c1ccc([N+](=O)[O-])cc1 | inactive: 14.6%
O=C(NCCCN1CCOCC1)c1ccccc1 | inactive: -1.84%
CC(=O)C1=C(O)C(=O)N(Cc2cccnc2)C1c1ccc(C(C)C)cc1 (stereo unspecified) | inactive: -3.02%
CCOC(=O)C1=NNC2(CC(=O)N(c3cc(C)cc(C)c3)C2=O)C1 (stereo unspecified) | inactive: -9.95%
COc1ccc(N2Cc3ccccc3C2=NC(=O)c2cccc([N+](=O)[O-])c2)cc1 | inactive: 15.6%
O=C(NC(Cc1ccccc1)C(=O)N1CCc2ccccc2C1)c1ccccc1 (stereo unspecified) | inactive: -10.3%
O=C(NC1=NCCS1)C1COc2ccccc2O1 (stereo unspecified) | inactive: 22.1%
